# Results reported in the supplement of paper PMC8728848.
# The other results are listed elsewhere or left out.
# B1: SialidaseA (Arthrobacter ureafaciens) (protein)
# chain: MRSNSTSAPSLVRRAATGVLTCAVSIGLLAGLGLPAQAAPTPPNSPTLPPGSFSETNLAADRTAANFFYRIPALTYLGNDVVLAAWDGRPGSAADAPNPNSIVQRRSTDGGKTWGPVQVIAAGHVADASGPRYGYSDPSYIYDAEANKVFAFFVYSKDQGFGGSQFGNDDADRNVISSAVIESSDAGVTWSQPRLITSVTKPGTSKTNPAAGDVRSNFASSGEGIQLKYGPHKGRLIQQYAGDVRQADGSNKIQAYSVYSDDHGVTWHKGANVGDRMDENKTVELSDGRVLLNSRDNANRGYRKVAVSTDGGATYGPVSQDTELPDPANNGAIARMFPNAAQGSADAKKLIFTNANSKTGRENVSARVSCDDGETWPGVRTIRSGFSAYSTVTRLADGKFGVLYEGNYTDNMPFATFDDAWLNYVCAPLAVPAVNIAPSATQEVPVTVTNQEATTLSGATATVYTPSGWSATTVPVPDVAPGASVTVTVALTAPADASGPRSLNAAFTTADGRVSQFTFTATTPVAPQVGLTITGSAPARDVAANPYQAGDVLGYTLNVKSTANVAANSVPLTGTFDSGFLPPAAPNCRYNNLAAGASYNCTTAKHTITAADMERGYFVPEATFSITSTTTPSLTKTVQFTGAAVALRDGLISADISGARTDVGRDLATRPYAAGELVPYAFTVKNTSPFVEQVVPTAGNFSPFLPAGAGNCRYLSLPAGQSYECATPRHAVTAEEVEQGFFVPDTTWEVSAAGQSTRTYRINGGEVDLLVRDAALSATVVAEWKDADGDRFASAGDPVTFTYTVGNAGNVALTGLEAPDAGISLPFLAPGDTATATREHVLTAADVAGGSLAASAFEATARNGSKEVTATAEGQPLELKVQPAQPSKEPELTVQDLEDQTPPFDLGTAFKYRTGQKVSLAGLEYGQWYYVYLNKTGYRLGWMFPTTGDTVEFILPPEVRNGRDDVVVLDKDGRRVSFDRLQVTPKGEKI
# Legend:
# Assay in all cases: glycan array binding signal (z-score within array); higher = stronger binding
# Conditions in all cases: glycan notation: IUPAC condensed, linker removed
# [1] = molecular target: Neu5Ac(a2-6)GlcNAc(b1-4)GlcNAc(b1-4)GlcNAc
# Procedure, shortened: (§1)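 Columns mapping to the same glycan were averaged after glycan names were converted to IUPAC-condensed notation. The data come from 3228 arrays in the Consortium for Functional Glycomics database, limited to those with an available protein sequence. Binding is reported as a within-array Z-score averaged across arrays of one protein sequence and across linkers.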
# Neu5Ac(a2-8)Neu5Ac = molecular target: Neu5Ac(a2-8)Neu5Ac
# Procedure, shortened: as §1
# [2] = molecular target: Neu5Ac(a2-8)Neu5Ac(a2-3)Gal(b1-3)GalNAc(b1-4)[Neu5Ac(a2-3)]Gal(b1-4)Glc
# Procedure, shortened: as §1
# [3] = molecular target: Neu5Ac(a2-8)Neu5Ac(a2-3)Gal(b1-3)GalNAc(b1-4)[Neu5Ac(a2-8)Neu5Ac(a2-3)]Gal(b1-4)Glc
# Procedure, shortened: as §1
# [4] = molecular target: Neu5Ac(a2-8)Neu5Ac(a2-3)Gal(b1-4)Glc
# Procedure, shortened: as §1
# [5] = molecular target: Neu5Ac(a2-8)Neu5Ac(a2-3)Gal(b1-4)GlcNAc
# Procedure, shortened: as §1
# [6] = molecular target: Neu5Ac(a2-8)Neu5Ac(a2-3)[Gal(b1-3)GalNAc(b1-4)]Gal(b1-4)Glc
# Procedure, shortened: as §1
# [7] = molecular target: Neu5Ac(a2-8)Neu5Ac(a2-3)[GalNAc(b1-4)]Gal(b1-4)Glc
# Procedure, shortened: as §1
# [8] = molecular target: Neu5Ac(a2-8)Neu5Ac(a2-8)Neu5Ac
# Procedure, shortened: as §1
# [9] = molecular target: Neu5Ac(a2-8)Neu5Ac(a2-8)Neu5Ac(a2-3)Gal(b1-4)Glc
# Procedure, shortened: as §1
# [10] = molecular target: Neu5Ac(a2-8)Neu5Ac(a2-8)Neu5Ac(a2-3)[Gal(b1-3)GalNAc(b1-4)]Gal(b1-4)Glc
# Procedure, shortened: as §1
# [11] = molecular target: Neu5Ac(a2-8)Neu5Ac(a2-8)Neu5Ac(a2-3)[GalNAc(b1-4)]Gal(b1-4)Glc
# Procedure, shortened: as §1
# [12] = molecular target: Neu5Ac(a2-8)Neu5Ac(a2-8)Neu5Ac(a2-8)Neu5Ac(a2-3)[GalNAc(b1-4)]Gal(b1-4)Glc
# Procedure, shortened: as §1
# [13] = molecular target: Neu5Ac(a2-8)Neu5Gc(a2-3)Gal(b1-4)GlcNAc
# Procedure, shortened: as §1
# [14] = molecular target: Neu5Ac(b2-6)Gal(b1-4)GlcNAc
# Procedure, shortened: as §1
# Neu5Ac(b2-6)GalNAc = molecular target: Neu5Ac(b2-6)GalNAc
# Procedure, shortened: as §1
# [15] = molecular target: Neu5Ac9Ac(a2-3)Gal(b1-3)GlcNAc
# Procedure, shortened: as §1
# [16] = molecular target: Neu5Ac9Ac(a2-3)Gal(b1-4)GlcNAc
# Procedure, shortened: as §1
# [17] = molecular target: Neu5Ac9Ac(a2-6)Gal(b1-4)GlcNAc
# Procedure, shortened: as §1
# [18] = molecular target: Neu5Gc(a2-3)Gal(b1-3)GlcNAc
# Procedure, shortened: as §1
# [19] = molecular target: Neu5Gc(a2-3)Gal(b1-3)[Fuc(a1-4)]GlcNAc
# Procedure, shortened: as §1
# Neu5Gc(a2-3)Gal(b1-4)Glc = molecular target: Neu5Gc(a2-3)Gal(b1-4)Glc
# Procedure, shortened: as §1
# [20] = molecular target: Neu5Gc(a2-3)Gal(b1-4)GlcNAc
# Procedure, shortened: as §1
# [21] = molecular target: Neu5Gc(a2-3)Gal(b1-4)GlcNAc(b1-3)Gal(b1-4)GlcNAc(b1-2)Man(a1-3)[Neu5Gc(a2-3)Gal(b1-4)GlcNAc(b1-3)Gal(b1-4)GlcNAc(b1-2)Man(a1-6)]Man(b1-4)GlcNAc(b1-4)GlcNAc
# Procedure, shortened: as §1
# [22] = molecular target: Neu5Gc(a2-3)Gal(b1-4)[Fuc(a1-3)]GlcNAc
# Procedure, shortened: as §1
# [23] = molecular target: Neu5Gc(a2-6)Gal(b1-4)GlcNAc
# Procedure, shortened: as §1
# Neu5Gc(a2-6)GalNAc = molecular target: Neu5Gc(a2-6)GalNAc
# Procedure, shortened: as §1
# [24] = molecular target: Neu5Gc(a2-8)Neu5Ac(a2-3)Gal(b1-4)GlcNAc
# Procedure, shortened: as §1
# [25] = molecular target: Neu5Gc(a2-8)Neu5Gc(a2-3)Gal(b1-4)GlcNAc
# Procedure, shortened: as §1
# [26] = molecular target: Neu5Gc(a2-8)Neu5Gc(a2-3)Gal(b1-4)GlcNAc(b1-3)Gal(b1-4)GlcNAc
# Procedure, shortened: as §1
binder,measurement,setting,value
B1,glycan array binding signal (z-score),[1],-0.274
same,glycan array binding signal (z-score),Neu5Ac(a2-8)Neu5Ac,0.915
same,glycan array binding signal (z-score),[2],-0.165
same,glycan array binding signal (z-score),[3],-0.496
same,glycan array binding signal (z-score),[4],0.214
same,glycan array binding signal (z-score),[5],0.72
same,glycan array binding signal (z-score),[6],-0.131
same,glycan array binding signal (z-score),[7],0.978
same,glycan array binding signal (z-score),[8],1.11
same,glycan array binding signal (z-score),[9],0.864
same,glycan array binding signal (z-score),[10],-0.754
same,glycan array binding signal (z-score),[11],0.901
same,glycan array binding signal (z-score),[12],0.607
same,glycan array binding signal (z-score),[13],-0.289
same,glycan array binding signal (z-score),[14],1.97
same,glycan array binding signal (z-score),Neu5Ac(b2-6)GalNAc,1.22
same,glycan array binding signal (z-score),[15],0.113
same,glycan array binding signal (z-score),[16],0.621
same,glycan array binding signal (z-score),[17],-0.523
same,glycan array binding signal (z-score),[18],0.271
same,glycan array binding signal (z-score),[19],1.83
same,glycan array binding signal (z-score),Neu5Gc(a2-3)Gal(b1-4)Glc,0.765
same,glycan array binding signal (z-score),[20],0.363
same,glycan array binding signal (z-score),[21],1.3
same,glycan array binding signal (z-score),[22],2.07
same,glycan array binding signal (z-score),[23],1.5
same,glycan array binding signal (z-score),Neu5Gc(a2-6)GalNAc,1.5
same,glycan array binding signal (z-score),[24],0.631
same,glycan array binding signal (z-score),[25],0.678
same,glycan array binding signal (z-score),[26],-0.017
